Laboratory results: PMC10904043
These are yes or no findings as the source states them, for the method shown. In cells and extracts the contact can be indirect. Some binding calls cover weakened binding; strength is not graded here.

Sequences of proteins named here, by UniProt entry; tags and fusion partners are left off. Residues count along the entry.
UniProt P16671: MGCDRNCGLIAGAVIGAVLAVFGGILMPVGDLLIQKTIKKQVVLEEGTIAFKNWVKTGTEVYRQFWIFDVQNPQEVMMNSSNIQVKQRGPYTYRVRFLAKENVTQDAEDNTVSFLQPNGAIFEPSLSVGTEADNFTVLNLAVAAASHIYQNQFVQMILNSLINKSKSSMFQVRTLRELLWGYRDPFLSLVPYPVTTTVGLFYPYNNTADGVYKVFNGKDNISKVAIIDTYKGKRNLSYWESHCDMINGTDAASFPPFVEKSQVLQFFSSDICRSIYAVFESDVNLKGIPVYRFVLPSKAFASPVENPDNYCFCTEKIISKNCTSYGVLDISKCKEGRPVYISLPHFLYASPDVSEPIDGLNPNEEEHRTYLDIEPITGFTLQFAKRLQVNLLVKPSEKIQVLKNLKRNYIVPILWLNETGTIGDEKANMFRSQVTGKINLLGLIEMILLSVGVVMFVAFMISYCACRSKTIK
UniProt P04114, residues 28-4563: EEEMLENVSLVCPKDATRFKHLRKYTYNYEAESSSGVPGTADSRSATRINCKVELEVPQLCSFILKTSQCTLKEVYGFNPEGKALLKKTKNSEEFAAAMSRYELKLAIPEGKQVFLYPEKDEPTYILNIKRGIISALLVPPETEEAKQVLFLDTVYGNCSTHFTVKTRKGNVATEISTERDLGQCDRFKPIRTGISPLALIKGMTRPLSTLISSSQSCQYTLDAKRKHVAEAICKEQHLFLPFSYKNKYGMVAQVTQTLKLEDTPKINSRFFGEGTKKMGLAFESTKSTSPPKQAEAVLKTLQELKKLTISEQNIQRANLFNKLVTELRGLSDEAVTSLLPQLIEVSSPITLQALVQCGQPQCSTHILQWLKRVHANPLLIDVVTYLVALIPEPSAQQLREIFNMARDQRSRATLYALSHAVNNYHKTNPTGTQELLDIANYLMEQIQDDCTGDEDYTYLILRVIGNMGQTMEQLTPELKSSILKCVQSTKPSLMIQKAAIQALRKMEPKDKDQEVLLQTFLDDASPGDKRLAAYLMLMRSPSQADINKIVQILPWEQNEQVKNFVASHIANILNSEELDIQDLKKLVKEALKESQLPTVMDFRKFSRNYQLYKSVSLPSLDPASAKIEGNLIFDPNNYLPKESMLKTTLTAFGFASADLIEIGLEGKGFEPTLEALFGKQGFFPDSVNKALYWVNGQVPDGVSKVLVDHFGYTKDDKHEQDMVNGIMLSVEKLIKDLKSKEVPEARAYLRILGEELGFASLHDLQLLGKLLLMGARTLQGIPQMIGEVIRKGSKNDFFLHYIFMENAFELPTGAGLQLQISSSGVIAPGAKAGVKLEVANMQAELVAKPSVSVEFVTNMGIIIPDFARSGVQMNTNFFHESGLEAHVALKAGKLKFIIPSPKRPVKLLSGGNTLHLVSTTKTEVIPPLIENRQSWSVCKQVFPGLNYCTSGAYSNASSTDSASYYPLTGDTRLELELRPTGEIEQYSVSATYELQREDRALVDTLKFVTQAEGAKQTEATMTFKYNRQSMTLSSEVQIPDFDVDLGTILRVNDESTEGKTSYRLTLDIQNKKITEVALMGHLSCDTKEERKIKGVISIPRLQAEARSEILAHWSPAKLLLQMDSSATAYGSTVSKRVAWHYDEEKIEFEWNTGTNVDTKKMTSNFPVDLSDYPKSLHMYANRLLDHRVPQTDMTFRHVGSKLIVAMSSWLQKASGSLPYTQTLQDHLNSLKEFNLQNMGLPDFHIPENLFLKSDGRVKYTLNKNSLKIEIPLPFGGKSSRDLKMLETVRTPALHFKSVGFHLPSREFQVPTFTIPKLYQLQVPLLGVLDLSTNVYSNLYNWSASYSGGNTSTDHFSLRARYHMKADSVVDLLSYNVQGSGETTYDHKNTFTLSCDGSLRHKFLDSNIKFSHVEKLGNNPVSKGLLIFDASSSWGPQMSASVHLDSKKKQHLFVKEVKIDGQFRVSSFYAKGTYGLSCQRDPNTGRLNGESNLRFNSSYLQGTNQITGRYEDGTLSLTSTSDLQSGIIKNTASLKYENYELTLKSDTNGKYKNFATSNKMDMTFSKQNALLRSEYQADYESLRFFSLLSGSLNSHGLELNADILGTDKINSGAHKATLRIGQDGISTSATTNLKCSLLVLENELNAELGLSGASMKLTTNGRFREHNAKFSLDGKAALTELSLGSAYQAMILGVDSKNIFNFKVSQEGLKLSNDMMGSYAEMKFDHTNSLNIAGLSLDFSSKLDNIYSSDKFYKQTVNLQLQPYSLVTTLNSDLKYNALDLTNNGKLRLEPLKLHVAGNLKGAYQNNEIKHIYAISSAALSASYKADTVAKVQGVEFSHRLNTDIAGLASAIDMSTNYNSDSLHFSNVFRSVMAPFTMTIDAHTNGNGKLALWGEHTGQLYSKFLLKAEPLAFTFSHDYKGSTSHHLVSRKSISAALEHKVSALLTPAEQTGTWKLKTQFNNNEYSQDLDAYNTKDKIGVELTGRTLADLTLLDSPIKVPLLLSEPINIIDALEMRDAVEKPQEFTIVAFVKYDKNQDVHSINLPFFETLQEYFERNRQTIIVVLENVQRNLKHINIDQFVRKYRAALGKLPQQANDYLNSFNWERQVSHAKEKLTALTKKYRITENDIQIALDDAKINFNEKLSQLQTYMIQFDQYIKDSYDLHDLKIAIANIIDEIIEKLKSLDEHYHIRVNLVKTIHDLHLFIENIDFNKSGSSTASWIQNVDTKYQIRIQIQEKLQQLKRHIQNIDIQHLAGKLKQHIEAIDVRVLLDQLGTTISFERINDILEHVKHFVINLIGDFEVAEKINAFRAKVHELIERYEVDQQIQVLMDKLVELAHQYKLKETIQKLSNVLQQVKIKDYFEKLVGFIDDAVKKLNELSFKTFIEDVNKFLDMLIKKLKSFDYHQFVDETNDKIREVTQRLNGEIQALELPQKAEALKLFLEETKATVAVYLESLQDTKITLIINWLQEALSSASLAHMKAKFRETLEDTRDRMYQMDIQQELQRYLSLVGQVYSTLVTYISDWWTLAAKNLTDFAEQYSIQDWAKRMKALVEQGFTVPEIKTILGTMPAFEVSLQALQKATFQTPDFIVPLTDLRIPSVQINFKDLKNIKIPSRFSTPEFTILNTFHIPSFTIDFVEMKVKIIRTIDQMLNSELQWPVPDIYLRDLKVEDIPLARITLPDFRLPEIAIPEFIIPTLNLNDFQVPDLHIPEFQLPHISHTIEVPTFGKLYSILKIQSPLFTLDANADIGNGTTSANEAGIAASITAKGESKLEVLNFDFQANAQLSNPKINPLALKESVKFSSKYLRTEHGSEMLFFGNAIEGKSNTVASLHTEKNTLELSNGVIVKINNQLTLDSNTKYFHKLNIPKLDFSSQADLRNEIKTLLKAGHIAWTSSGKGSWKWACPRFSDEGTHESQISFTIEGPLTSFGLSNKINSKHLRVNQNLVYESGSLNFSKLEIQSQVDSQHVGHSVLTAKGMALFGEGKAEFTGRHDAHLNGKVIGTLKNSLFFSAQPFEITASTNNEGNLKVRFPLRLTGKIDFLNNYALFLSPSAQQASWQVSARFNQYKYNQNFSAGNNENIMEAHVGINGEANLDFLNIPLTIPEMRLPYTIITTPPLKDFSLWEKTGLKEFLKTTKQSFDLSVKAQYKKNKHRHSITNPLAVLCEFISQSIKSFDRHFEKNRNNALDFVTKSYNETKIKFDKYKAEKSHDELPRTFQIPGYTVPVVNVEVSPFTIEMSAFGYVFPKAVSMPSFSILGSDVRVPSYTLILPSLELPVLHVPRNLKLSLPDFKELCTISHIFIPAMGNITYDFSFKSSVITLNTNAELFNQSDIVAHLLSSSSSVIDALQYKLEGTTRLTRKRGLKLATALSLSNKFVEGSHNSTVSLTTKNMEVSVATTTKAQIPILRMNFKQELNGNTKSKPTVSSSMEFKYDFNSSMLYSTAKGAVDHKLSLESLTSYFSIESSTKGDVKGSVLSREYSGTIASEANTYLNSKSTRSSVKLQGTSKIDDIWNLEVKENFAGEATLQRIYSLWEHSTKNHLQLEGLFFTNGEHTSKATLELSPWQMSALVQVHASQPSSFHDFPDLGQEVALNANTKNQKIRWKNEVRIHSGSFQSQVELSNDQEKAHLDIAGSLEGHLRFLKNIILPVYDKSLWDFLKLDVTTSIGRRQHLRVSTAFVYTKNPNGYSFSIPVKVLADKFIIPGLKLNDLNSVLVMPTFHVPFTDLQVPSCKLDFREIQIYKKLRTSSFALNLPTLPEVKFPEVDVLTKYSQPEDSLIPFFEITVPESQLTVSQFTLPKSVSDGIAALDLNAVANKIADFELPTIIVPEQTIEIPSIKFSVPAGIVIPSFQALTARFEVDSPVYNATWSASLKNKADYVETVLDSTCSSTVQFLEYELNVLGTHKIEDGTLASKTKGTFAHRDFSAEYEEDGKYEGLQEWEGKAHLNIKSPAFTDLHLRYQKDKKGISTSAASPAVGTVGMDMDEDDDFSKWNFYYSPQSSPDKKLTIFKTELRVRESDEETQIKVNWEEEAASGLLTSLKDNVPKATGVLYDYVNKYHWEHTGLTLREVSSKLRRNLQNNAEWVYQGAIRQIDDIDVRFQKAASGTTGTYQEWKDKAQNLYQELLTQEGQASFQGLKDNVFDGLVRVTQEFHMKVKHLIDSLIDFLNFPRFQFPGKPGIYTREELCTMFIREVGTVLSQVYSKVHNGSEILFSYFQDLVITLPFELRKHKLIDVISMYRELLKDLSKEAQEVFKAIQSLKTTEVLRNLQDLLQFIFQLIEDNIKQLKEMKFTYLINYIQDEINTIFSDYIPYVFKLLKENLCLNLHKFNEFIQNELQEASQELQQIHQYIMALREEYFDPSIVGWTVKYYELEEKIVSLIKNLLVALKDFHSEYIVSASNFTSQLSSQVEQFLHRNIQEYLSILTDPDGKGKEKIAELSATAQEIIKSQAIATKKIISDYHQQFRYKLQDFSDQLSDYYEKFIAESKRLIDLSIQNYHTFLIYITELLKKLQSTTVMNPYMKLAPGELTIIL

Tests used:
[1] = target: CD36 (human (endogenous in THP-1 and HMDMs)) (UniProt P16671); assay: proximity ligation; HMDMs treated with biotinylated LDL with or without LL37; PLA between LDL and LDL receptors (spatial correlation <40 nm); only the binder purified
[2] = target: CD36 (human (endogenous in THP-1 and HMDMs)) (UniProt P16671); assay: proximity ligation; THP-1 cells treated with biotinylated LDL with or without LL37; PLA between LDL and LDL receptors (spatial correlation <40 nm); only the binder purified

biotinylated LDL (low density lipoprotein particle) (from UniProt P04114 28-4563) (complex)
binding [1]: binds | binding [2]: binds
